# Measurements: a collection of fitness landscapes (doi:10.1016/j.celrep.2020.107928)
# Whole data set: some 81,000 sequences, median “one-hybrid fitness for binding parS DNA” near -0.17, cut for the highest 2% near 0.51. The list shows a part of the results.
# B1: Caulobacter ParB omega fusion; a variant is named by its letters at X, in order, B8GW30 (parent)
# chain: MESVVVGEPGMSEGRRGLGRGLSALLGEVDAAPAQAPGEQLGGSREAPIEILQRNPDQPRRTFREEDLEDLSNSIREKGVLQPILVRPSPDTAGEYQIVAGERAWRAAQRAGLKTVPIMVRELDDLAVLEIGIIENVQRADLNVLEEALSYKVLMEKFERTQENIAQTIGKSXSHVANXMRLLXLPDEVQSYLVSGELTAXHARAIAAAADPVALAKQIIEGGLSVRETEALARKAPNLSAGKSKGGRPPRVKDTDTQALESDLSSVLGLDVSIDHRGSTGTLTITYATLEQLDDLCNRLTRGI
# Variants of: B1
# Assay: one-hybrid fitness for binding parS DNA (scaled: cognate 1, non-cognate 0); higher = stronger binding
# Conditions: with parS DNA site
# In short: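 In E. coli USO, a HIS3 reporter with its site placed 19 bp from the promoter was used to select Caulobacter ParB variants randomised at four specificity codons. Growth lasted 48 hours at 37°C on histidine-free M9 containing 0.1 mM IPTG and 5 mM 3-AT. Fitness was taken as the log change in variant-to-wild-type read ratio from Illumina sequencing of pre- and post-selection plasmids, rescaled between the non-cognate and cognate sites.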
row,Variant,one-hybrid fitness for binding parS DNA
1,NYVS,≤ 0.2
2,VTVS,≤ 0.2
3,LHYD,≤ 0.2
4,WTMR,≤ 0.2
5,HCTS,≤ 0.2
6,HITN,≤ 0.2
7,WRDK,≤ 0.2
8,QAKQ,≤ 0.2
9,LPMY,≤ 0.2
10,YEKS,≤ 0.2
11,EVLC,≤ 0.2
12,VYHN,≤ 0.2
13,FRIS,≤ 0.2
14,QLWN,≤ 0.2
15,NHFL,≤ 0.2
16,LYGC,≤ 0.2
17,ERPA,≤ 0.2
18,FQAT,≤ 0.2
19,DQQL,≤ 0.2
20,LPNL,≤ 0.2
21,SVSH,≤ 0.2
22,TRPA,≤ 0.2
23,RFVK,≤ 0.2
24,GNKR,≤ 0.2
25,VHPR,≤ 0.2

row,Variant,one-hybrid fitness for binding parS DNA
1,PRPL,≤ 0.2
2,KGIG,≤ 0.2
3,KYTS,≤ 0.2
4,QRQV,≤ 0.2
5,TYNV,≤ 0.2
6,VHRA,≤ 0.2
7,GTTE,≤ 0.2
8,RDFK,≤ 0.2
9,MKYG,≤ 0.2
10,RHWS,0.925
11,PTEE,≤ 0.2
12,ICHW,≤ 0.2
13,PKSL,≤ 0.2
14,QCIW,≤ 0.2
15,NIAC,≤ 0.2
16,EEMF,≤ 0.2
17,TAKS,≤ 0.2
18,QRFP,≤ 0.2
19,NFKG,≤ 0.2
20,EHAV,≤ 0.2
21,RFTY,0.457
22,LHAP,≤ 0.2
23,QDLR,≤ 0.2
24,TVHY,≤ 0.2
25,PRCK,≤ 0.2

row,Variant,one-hybrid fitness for binding parS DNA
1,QYYE,≤ 0.2
2,FPLH,≤ 0.2
3,PGTK,≤ 0.2
4,TENP,≤ 0.2
5,HNDM,≤ 0.2
6,THRS,≤ 0.2
7,PSMA,≤ 0.2
8,IMYG,≤ 0.2
9,TSPW,≤ 0.2
10,QPGH,≤ 0.2
11,WPIP,≤ 0.2
12,VQGG,≤ 0.2
13,QCVI,≤ 0.2
14,LLNT,≤ 0.2
15,SMFI,≤ 0.2
16,RMLG,1.01
17,GPVY,≤ 0.2
18,LPPY,≤ 0.2
19,HCDI,≤ 0.2
20,SMCG,≤ 0.2
21,LWRT,≤ 0.2
22,KTRD,≤ 0.2
23,RQNM,0.325
24,ECPR,≤ 0.2
25,LDCW,≤ 0.2

row,Variant,one-hybrid fitness for binding parS DNA
1,NTDG,≤ 0.2
2,NRMT,≤ 0.2
3,QGAS,≤ 0.2
4,PHHT,≤ 0.2
5,TGTK,≤ 0.2
6,RGWY,≤ 0.2
7,RAYG,1.01
8,SDCD,≤ 0.2
9,TGIR,≤ 0.2
10,APSY,≤ 0.2
11,PGPW,≤ 0.2
12,KNSH,≤ 0.2
13,PTAM,≤ 0.2
14,LWSD,≤ 0.2
15,HKRT,≤ 0.2
16,HEPK,≤ 0.2
17,KNHM,≤ 0.2
18,AMTE,≤ 0.2
19,YHQT,≤ 0.2
20,RYRH,≤ 0.2
21,SHRT,≤ 0.2
22,GSLT,≤ 0.2
23,NALK,≤ 0.2
